We go through 93 sequences from article PMC10726135.

The list shows a part of the results. At the low end of the ranking the order means little. Measured with an extract: partners may take part in the binding.

The assay concerns the target T1, HNF4alpha2 (COS-7 nuclear extract) (UniProt P41235).
T1 sequence: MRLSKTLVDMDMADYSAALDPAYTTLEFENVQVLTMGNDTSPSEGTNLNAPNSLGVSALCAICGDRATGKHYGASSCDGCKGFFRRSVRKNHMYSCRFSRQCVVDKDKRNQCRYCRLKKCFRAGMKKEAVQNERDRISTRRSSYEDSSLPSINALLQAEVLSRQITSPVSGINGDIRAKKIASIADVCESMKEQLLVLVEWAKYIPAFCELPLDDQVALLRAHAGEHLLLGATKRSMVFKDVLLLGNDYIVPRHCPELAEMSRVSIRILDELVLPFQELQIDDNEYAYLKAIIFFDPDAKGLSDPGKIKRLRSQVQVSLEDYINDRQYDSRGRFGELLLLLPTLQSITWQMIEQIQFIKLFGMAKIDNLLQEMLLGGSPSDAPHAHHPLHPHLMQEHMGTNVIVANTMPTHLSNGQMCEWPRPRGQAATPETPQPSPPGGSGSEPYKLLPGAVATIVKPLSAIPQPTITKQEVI
Kind of assay: protein-binding microarray. The following applies: COS-7 nuclear extract on double-stranded Agilent 4x180k PBM; binding buffer, salt, pH and temperature not given; high values mean tight binding; double strand, one strand shown; sequences stand for … in …GCCTAGGGAGATTAGAGTATCGGTCGA
Take GATAGATTTTGCATTGCTCACATAGCTGGG: the binding signal (log2 normalized intensity) was -1.13. As for CCTTTCTTTGTCTTTGCAATGTTGTCTTTT, the figure is 2.33.

As to GAGCCCACAGTCCAGTACCATTTCCTGGTC, the binding signal (log2 normalized intensity) is -0.697. As for GAGAGGTCAATGTCCAGTTCCGCTGCAGTT, the figure is 4.22.

TGTGGCTAACAATATGGGGTGGGGAAGAAG: the binding signal (log2 normalized intensity) was -1.13. As for AGAGCACAACCTTTGGCCGTGCATGCTTGG, the figure is 1.84; as for TCCAAATTCCTTGGAATACATGGAATGCTC, -0.18; as for AGCCCAAGAAGCGTCAGTTGCCTCGCCAGA, -1.07. Then GGGCTCCCACCAGGGGGAGGCTCAGAGTCT, with -1.08. Regarding ACATGAGCTAGTGCTAAAGGTCATATCCAA, the binding signal (log2 normalized intensity) turned out to be 4.2. Regarding GCAGGTGGCTACATGATGTCAGTTTGACTC, the binding signal (log2 normalized intensity) amounted to 0.999. Then GTGGTCTTTATGACTTGGGTGCACCAATGA, with 2.04.

In the case of AGGAGCCAAAGTCCTTCCCAAGTCCTGCAT, the binding signal (log2 normalized intensity) turned out to be 1.63. Then AAAATAGTTTCAACTTAACCCCAGTTTAGC, with 2.16; and TCCACAGTCAAGGCCAAAGGTTAAAAATAA, with 3.7. Then TGATCCATTCTACCCCTGTGGTTGACCTTT, with 7.8; and CCCCTTGCTGAGTGGAAAAACACCTGGTTC, with 0.86; and GGGATCAGCAATGCTCAGCCCACCTTTTGG, with -1.15. Take CCTGGATGCCAGGCAAGAGCTCAGAAGCCA: the binding signal (log2 normalized intensity) is -1.06. Then GCCCACAATTGCATGTTCAACAGACAGCTG, with -1.08; and TGTGGGTAATTAATCTGATCGCCCTCCCCC, with 5.26. As for ATTAGTCTCTGCTGGCTTTCCACTCAGGCT, the binding signal (log2 normalized intensity) was -1.19. Then ACAGGGGCCCAAGATAAAGGGACAGGGGTC, with 0.84. AAGGCTGTCACACTGGCCTTTGCCCTCGCT: the binding signal (log2 normalized intensity) is 4.98.

As to GCAACAGGAAACAGCCTGTGTTCTCTCAAC, the binding signal (log2 normalized intensity) was -1.1. As for GAGAGGCTTATGCATGGGAGATCTTCAGTA, the figure is -0.167; as for GAAAGACGAAAGGGACTTTGATCTTCTTAC, 5.53. As for AGCTCTTTCCATTTTTGCTCCTGCACTTTT, the figure is 2.16.

On to GAGTACACTCAGCTGTGTCTACCCTTTTGC, for which the binding signal (log2 normalized intensity) was 1.06.

Regarding GTAGGGCAGCAGCCGGCCTCTTAACAGATG, the binding signal (log2 normalized intensity) is -1.23. As for GCATCCCAGTAGAAAAAAAAATGGGCAAAG, the figure is -1.04; as for AGGAATTTGGCTCTAGAGGAGTCCCCTTAA, 0.67. Then AGACAGCATAGGAAGTGGGGAAGAAGTGTT, with -1.07; and GCAGGGAAGGAGAGTGACCTCTGCTTGAAG, with 1.82. Then GGGAAGGCTAGCATTCCTGCACACCTGCCT, with -1.12; and TCTTGTGGGCTGGGAGCTAATGAGCACATT, with -0.92; and TACAGCAGGGTAGAAAAGAGTTAAAAAAAA, with -0.216. In the case of ATCCTTCAAAGCTGAGAATTGGGAGGGCTT, the binding signal (log2 normalized intensity) was -0.958. As for ATTATTGCCTGGCATCTAACCTTCGTCCTT, the figure is 3.69; as for TAGCCTCAAATTCCTGGGCTCAAACAATCC, -1.19; as for ATTTCACAGCAACCTCAGACCTCTCCCGCC, 1.47. Then CCACATACAAGTCACTCTTCATTTCCCTCA, with -1.08. As for CTTGTCTGGCCTTCCTGGCCCTAGCTGGGT, the figure is 0.579. For CGCCGCATCTACCAGCGTAATTCTGGCTCT, the binding signal (log2 normalized intensity) was -1.08. Then TGCTGGAATGAAGACTCACATCTATCTCCC, with -0.596; and TACCAGGAATATTGCCCCCTAATGGTATTT, with 3.16. For AAAGTCTTTCTCTTTCAAGATAACAAGGCA, the binding signal (log2 normalized intensity) was determined as 1.37.

With TTGGCCCTCAGCCCAATGTGGTAGGATGGC, the binding signal (log2 normalized intensity) was 0.097. As for ATAACATGAGGTAGAGGGACACTGATAACA, the figure is -1.13; as for GTTGTACCTGACTAAAACCTGCTGCAGGAG, -1.1. As for GCTCCCCCAGTGAGCAATTCTTGTCCCTTT, the figure is 2.85.

As to AGCCAAGATTACAGCCACATGCTAACACAC, the binding signal (log2 normalized intensity) is -1.15. Then GCAGCCCAGCAAAGAGGGTCAAAGCCCAGG, with -1.05; and AGGGGGGTGGGCACCCCTGCCCCCATGTTG, with 2.97. Turning to AGCAGGGGGCGCAGAAGGGATGGGAACCGA, the binding signal (log2 normalized intensity) is -1.28.

Take AAACTGTTATCTCTCAACTCAGTGAGGGCT: the binding signal (log2 normalized intensity) was -0.882. As to AAACCCACGCCCACCCTATTGATGCAAGGA, the binding signal (log2 normalized intensity) was determined as 2.16.

Turning to GCACGCACACCGAGCACGGTGCAGGGAGGA, the binding signal (log2 normalized intensity) is -1.11. Then TAATGATTTGTAAATCTCTAGTCCCAGCCT, with -1.26; and TTCATCCTGAGAGGGCTCAAGGTCTGCATG, with 1.29; and GCCGGTTCCCGCCCAAGGAGACAGGCTTTG, with -1.11. Turning to AGACACGCCTTGCACAAATTTCAGATATCT, the binding signal (log2 normalized intensity) was -0.77. As for GTAGTGGTTGAATTTCAGAGGGAAGAGGAA, the figure is -0.562; as for GCCCCACTGGGGTGGAGATGCCGTCGGCAC, -1.07; as for CCTTAAAGCATGACAAAATAACGAAGGCAT, -0.565. Then CTCTACTGTCCATCTTTTGCCCCTCTTATG, with 3.46; and ATTTTGCTCTTTGTACCGTTTGAACAGCCA, with 2.36; and CTCCAGGGGACTGCCTCTTCAGGAGGCACT, with -1.11. As for CGCGCGTGTGGATACGATGACATCATCTGT, the figure is 1.11; as for ATTTCAAACCTTTGCCCCACTCTCCTCTGC, 3.44; as for AGACTTTGGACCTGGCCCTCTGGGTTGGAA, 4.9. As for CTGGAGTCCAAAGGTCAGCAAGCCTGGAGT, the binding signal (log2 normalized intensity) stood at 6.88. Turning to GTAAATATGACCTTTGCTTTTCAAGATTTT, the binding signal (log2 normalized intensity) was found to be 3.28. As for TCCAGCCAGGTTGCATCAGCTGGGCTCGGC, the figure is -1.21.

As for ATGATGAAAGCAATGTTTGAGGAAGATTAG, the binding signal (log2 normalized intensity) is -0.61. Then TGCCTGGGTCCTGGGAGCAAACCCCAGCTG, with -0.985. As for CTGCGTTTTTTCCGAACGCCAGCAGCAGGG, the figure is -1.2. As for CCCCTTCTTAACATCAGAAGTTGGACTTTG, the figure is 7.59; as for AACTAAAAGTATCTAAGGGCCTAGAAGAGT, -1.12.

Regarding CTATAGTTATCTCTGCTGATAGCATAAAGC, the binding signal (log2 normalized intensity) is -0.207. Then GGGGAAGCTGTTGGGCGCCGGAACTGGTCC, with -1.06.

For CTCCTGGACTTTGGTCTCATGGGCCTAAAC, the binding signal (log2 normalized intensity) was determined as 4.65. Regarding GGGTTGGCATGCATATGAGTAATGTGAAGA, the binding signal (log2 normalized intensity) turned out to be 0.627. As for TCCTTATTTATCTTCCAGCGGGTGCTTAAA, the figure is -0.113; as for TGTTTGTAAACTGTCATGGTGCTGGCGGGA, 1.53; as for GAGTGCTTTCATCTTTGCGGTGAGCATTTG, 1.48. As for AGGGAGGCAGCCACCTAGGCCGGTCAAGTC, the figure is -1.07. As for CATATCTGGAATTTCAAAGGGAGCATATGT, the figure is 1.51; as for AATCTTCATTCCTCAAATGCTCCTTTGAAC, 2.54; as for GTGGCAGGCACTTAGCAAATATTTACTGAA, -1.11. For CTTATACGTGGAAGAAACTCATCTCCAGAT, the binding signal (log2 normalized intensity) was -0.677. For the sequence GCATGACTTGTTATCACCTGCTGGAATGTT, the binding signal (log2 normalized intensity) is 1.62. Then TCAAATCCCCTAGGTGATTAGAAGATAGCT, with -0.992.
